Laboratory results as given in the supplement of paper PMC4967469.
The IC50 comes from the fitted curve, where viability falls to half of the control; a limit (>, <) means that the fit lies beyond the doses tested. AUC, from the same fit, is the share of area under the viability curve across the 256-fold dose range; values near 1 show little effect. For some of these results: The top dose, if marked as inferred, comes from the curve model; the source does not state it. For some of these results: Where an entry number is given, a second screen of the drug exists; the two often differ.

How the values were obtained:
Experiment in all cases: Viability of human cancer cell lines after 72 h of drug (GDSC screen)
[1] = compound: COc1nc(C)cnc1NS(=O)(=O)c1cccnc1-c1ccc(-c2nnco2)cc1 [Zibotentan]; details: top dose 20 µM; top dose inferred
Protocol: (§1)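 Human cancer cell lines in 384-well plates, medium with 10% serum, drug for 72 h over a 256-fold dose range (nine 2-fold or five 4-fold steps up to the top dose). Adherent lines were fixed and stained with the nucleic acid dye Syto60, suspension lines read with resazurin; signal relative to control wells, capped at 0 and 100%. One two-parameter sigmoid per drug and line, fitted in a mixed model over all curves with the slope shared within a line.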

[2] = compound: COc1cc(O)c2c(c1)/C=C/C[C@H](O)[C@H](O)C(=O)/C=C\C[C@H](C)OC2=O [(5Z)-7-Oxozeaenol]; details: top dose 10 µM; top dose inferred
Protocol: as §1

[3] = compound: COc1cc(N2CCC(O)CC2)ccc1Nc1cc(Nc2ccccc2S(=O)(=O)C(C)C)c2cc[nH]c2n1 [MPS-1-IN-1]; details: top dose 20 µM; top dose inferred
Protocol: as §1

[4] = compound: O=c1cc(-c2cccc3c2Sc2ccccc2S3)oc(N2CCOCC2)c1 [KU-55933]; details: top dose 10 µM
Protocol: as §1

[5] = compound: C=CC(=O)Nc1cc(-n2c(=O)ccc3cnc4ccc(-c5cn[nH]c5)cc4c32)ccc1C [QL-X-138]; details: top dose 10.24 µM; top dose inferred
Protocol: as §1

[6] = compound: Cc1cnc(-c2cnc(NCCNc3ccc(C#N)cn3)nc2-c2ccc(Cl)cc2Cl)[nH]1 [CHIR-99021]
Protocol: as §1

[7] = compound: Cc1ccc(F)c(NC(=O)Nc2ccc(-c3cccc4[nH]nc(N)c34)cc2)c1 [ABT-869]; details: top dose 1.024 µM; top dose inferred
Protocol: as §1

[8] = compound: Nc1ccn([C@@H]2O[C@H](CO)[C@@H](O)[C@@H]2O)c(=O)n1 [Cytarabine]; details: top dose 2 µM
Protocol: as §1

[9] = compound: CCn1c(-c2nonc2N)nc2cnc(Oc3cccc(NC(=O)c4ccc(OCCN5CCOCC5)cc4)c3)cc21 [GSK269962A]; details: top dose inferred
Protocol: as §1

[10] = compound: COc1cc2ncnc(-n3nc(-c4ccccn4)nc3N)c2cc1OC [CP466722]; details: top dose 16 µM; top dose inferred
Protocol: as §1

[11] = compound: C[C@]1(c2nc3c(C(N)=O)cccc3[nH]2)CCCN1 [ABT-888]; details: top dose 5 µM; top dose inferred
Protocol: as §1

[12] = top dose 2.56 µM, screen: GDSC drug entry 154
[13] = top dose 10 µM, screen: GDSC drug entry 1241, top dose inferred
[14] = top dose 5 µM, screen: GDSC drug entry 1192
[15] = top dose 2.5 µM, screen: GDSC drug entry 127

Cell Line | AUC [1] | IC50 [1] | AUC [2] | IC50 [2] | AUC [3] | IC50 [3] | AUC [4] | IC50 [4] | AUC [5] | IC50 [5] | AUC [6, 12] | IC50 [6, 12] | AUC [6, 13] | IC50 [6, 13] | AUC [7] | IC50 [7] | AUC [8] | IC50 [8] | AUC [9, 14] | IC50 [9, 14] | AUC [10] | IC50 [10] | AUC [11] | IC50 [11] | AUC [9, 15] | IC50 [9, 15]
HuO-3N1 (osteosarcoma, adherent) | 0.982 | > 20 µM | 0.833 | 9.55 µM | 0.965 | > 20 µM | 0.929 | > 10 µM | 0.791 | 6.32 µM | 0.979 | > 2.56 µM | 0.882 | > 10 µM | 0.91 | > 1.02 µM | 0.82 | 1.65 µM | 0.938 | > 5 µM | 0.903 | > 16 µM | 0.981 | > 5 µM | – | –
JHOS-3 (ovary, adherent) | 0.973 | > 20 µM | 0.753 | 4.18 µM | 0.939 | > 20 µM | 0.977 | > 10 µM | 0.751 | 4.22 µM | – | – | 0.908 | > 10 µM | 0.977 | > 1.02 µM | 0.823 | 1.64 µM | 0.898 | > 5 µM | 0.891 | > 16 µM | 0.984 | > 5 µM | – | –
KMS-11 (myeloma, suspension) | 0.99 | > 20 µM | 0.629 | 1.34 µM | 0.785 | 7.27 µM | 0.972 | > 10 µM | 0.801 | 4.18 µM | – | – | 0.895 | 9.03 µM | 0.991 | > 1.02 µM | 0.939 | > 2 µM | 0.886 | 4.11 µM | 0.867 | 11 µM | 0.988 | > 5 µM | – | –
KP-2 (pancreas, adherent) | 0.985 | > 20 µM | 0.533 | 0.776 µM | 0.92 | > 20 µM | 0.882 | > 10 µM | 0.667 | 1.95 µM | 0.985 | > 2.56 µM | 0.97 | > 10 µM | 0.943 | > 1.02 µM | 0.923 | > 2 µM | 0.964 | > 5 µM | 0.895 | > 16 µM | 0.98 | > 5 µM | – | –
KYAE-1 (oesophagus, suspension) | 0.983 | > 20 µM | 0.838 | 7.85 µM | 0.877 | > 20 µM | 0.907 | > 10 µM | 0.323 | 0.194 µM | – | – | 0.944 | > 10 µM | 0.956 | > 1.02 µM | 0.979 | > 2 µM | 0.944 | > 5 µM | 0.577 | 1.67 µM | 0.978 | > 5 µM | – | –
MOG-G-CCM (glioma, adherent) | 0.979 | > 20 µM | 0.744 | 3.57 µM | 0.919 | > 20 µM | 0.962 | > 10 µM | 0.531 | 0.79 µM | 0.975 | > 2.56 µM | 0.868 | > 10 µM | 0.959 | > 1.02 µM | 0.615 | 0.274 µM | 0.759 | 2.03 µM | 0.94 | > 16 µM | 0.974 | > 5 µM | – | –
MOLT-13 (T-cell lymphoblastic leukaemia, suspension) | 0.988 | > 20 µM | 0.412 | 0.371 µM | 0.866 | 14.3 µM | 0.938 | > 10 µM | 0.514 | 0.694 µM | – | – | 0.933 | > 10 µM | 0.989 | > 1.02 µM | 0.981 | > 2 µM | 0.479 | 0.277 µM | 0.61 | 1.92 µM | 0.947 | > 5 µM | 0.898 | 2.48 µM
NCC021 (kidney, adherent) | 0.971 | > 20 µM | 0.775 | 4.63 µM | 0.963 | > 20 µM | 0.911 | > 10 µM | 0.789 | 5.36 µM | – | – | 0.856 | > 10 µM | 0.971 | > 1.02 µM | 0.84 | 1.72 µM | 0.953 | > 5 µM | 0.836 | 13.2 µM | 0.981 | > 5 µM | – | –
NCI-H630 (large intestine, adherent) | 0.986 | > 20 µM | 0.821 | 6.38 µM | 0.837 | 14.8 µM | 0.986 | > 10 µM | 0.935 | > 10.2 µM | 0.988 | > 2.56 µM | 0.951 | > 10 µM | 0.986 | > 1.02 µM | 0.918 | > 2 µM | 0.956 | > 5 µM | 0.932 | > 16 µM | 0.971 | > 5 µM | – | –
OACM5-1 (oesophagus, semi-adherent) | 0.971 | > 20 µM | 0.89 | > 10 µM | 0.734 | 6.37 µM | 0.964 | > 10 µM | 0.578 | 1.08 µM | – | – | 0.973 | > 10 µM | 0.972 | > 1.02 µM | 0.958 | > 2 µM | 0.966 | > 5 µM | 0.622 | 2.27 µM | 0.985 | > 5 µM | – | –
OACp4C (oesophagus, adherent) | 0.974 | > 20 µM | 0.808 | 6.51 µM | 0.633 | 3.14 µM | 0.956 | > 10 µM | 0.628 | 1.55 µM | – | – | 0.971 | > 10 µM | 0.964 | > 1.02 µM | 0.734 | 0.674 µM | 0.824 | 3.8 µM | 0.721 | 4.87 µM | 0.979 | > 5 µM | – | –
OC-314 (ovary, adherent) | 0.99 | > 20 µM | 0.603 | 1.14 µM | 0.976 | > 20 µM | 0.954 | > 10 µM | 0.659 | 1.65 µM | – | – | 0.902 | 9.84 µM | 0.989 | > 1.02 µM | 0.851 | 1.21 µM | 0.835 | 2.65 µM | 0.891 | 14 µM | 0.991 | > 5 µM | – | –
